The values below come from paper PMC9911399, “Two distinct binding modes provide the RNA-binding protein RbFox with extraordinary sequence specificity”.

Changes are numbered by the printed parent chain; changes in the protein carry UniProt numbers. Some of the results follow.

To fix the notation:
T1: RBFOX1 RRM RbFoxmut (Fox-RRM*) (Homo sapiens, UniProt Q9NWB1 109-208, R118D;E147R;N151S;E152T)
T1 sequence: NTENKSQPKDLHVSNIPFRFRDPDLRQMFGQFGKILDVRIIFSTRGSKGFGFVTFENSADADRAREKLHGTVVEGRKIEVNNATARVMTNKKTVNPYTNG

B1: GUCUUAG (DNA:RNA)
RNA: GGGAGACCGGAAUUCAGAUUGUCCGUCUUAGUUAAAUCCCGUCGUAGCCACCA
DNA 1: CAATCTGAATTCCGGTCTCCC
DNA 2: TGGTGGCTACGACGGGATT
B2: UAAAAUG (DNA:RNA)
RNA: B1 RNA with G25U, U26A, C27A, U28A, U29A, A30U
DNA 1: CAATCTGAATTCCGGTCTCCC
DNA 2: TGGTGGCTACGACGGGATT
B3: UGAUCAU (DNA:RNA)
RNA: B1 RNA with G25U, U26G, C27A, U29C, G31U
DNA 1: CAATCTGAATTCCGGTCTCCC
DNA 2: TGGTGGCTACGACGGGATT
B4: AGAAGUA (DNA:RNA)
RNA: GGGAGACCGGAAUUCAGAUUGUCCAGAAGUAUUAAAUCCCGUCGUAGCCACCA
DNA 1: CAATCTGAATTCCGGTCTCCC
DNA 2: TGGTGGCTACGACGGGATT
B5: UCAGCUA (DNA:RNA)
RNA: B4 RNA with A25U, G26C, A28G, G29C
DNA 1: CAATCTGAATTCCGGTCTCCC
DNA 2: TGGTGGCTACGACGGGATT
B6: UUCAAGC (DNA:RNA)
RNA: B1 RNA with G25U, U28A, U29A, A30G, G31C
DNA 1: CAATCTGAATTCCGGTCTCCC
DNA 2: TGGTGGCTACGACGGGATT
B7: GCGGGCC (DNA:RNA)
RNA: B4 RNA with A25G, G26C, A27G, A28G, U30C, A31C
DNA 1: CAATCTGAATTCCGGTCTCCC
DNA 2: TGGTGGCTACGACGGGATT
B8: UAUUCUG (DNA:RNA)
RNA: B1 RNA with G25U, U26A, C27U, U29C, A30U
DNA 1: CAATCTGAATTCCGGTCTCCC
DNA 2: TGGTGGCTACGACGGGATT
B9: AAGAACA (DNA:RNA)
RNA: B4 RNA with G26A, A27G, G29A, U30C
DNA 1: CAATCTGAATTCCGGTCTCCC
DNA 2: TGGTGGCTACGACGGGATT
B10: GUGACUA (DNA:RNA)
RNA: B4 RNA with A25G, G26U, A27G, G29C
DNA 1: CAATCTGAATTCCGGTCTCCC
DNA 2: TGGTGGCTACGACGGGATT
B11: CCUUCGA (DNA:RNA)
RNA: B4 RNA with A25C, G26C, A27U, A28U, G29C, U30G
DNA 1: CAATCTGAATTCCGGTCTCCC
DNA 2: TGGTGGCTACGACGGGATT
B12: CAGAUGA (DNA:RNA)
RNA: B4 RNA with A25C, G26A, A27G, G29U, U30G
DNA 1: CAATCTGAATTCCGGTCTCCC
DNA 2: TGGTGGCTACGACGGGATT
B13: AUACUUU (DNA:RNA)
RNA: B4 RNA with G26U, A28C, G29U, A31U
DNA 1: CAATCTGAATTCCGGTCTCCC
DNA 2: TGGTGGCTACGACGGGATT
B14: GACUAAC (DNA:RNA)
RNA: B1 RNA with U26A, U29A, G31C
DNA 1: CAATCTGAATTCCGGTCTCCC
DNA 2: TGGTGGCTACGACGGGATT
B15: GCUGUAG (DNA:RNA)
RNA: B1 RNA with U26C, C27U, U28G
DNA 1: CAATCTGAATTCCGGTCTCCC
DNA 2: TGGTGGCTACGACGGGATT
B16: GAGCUUA (DNA:RNA)
RNA: B4 RNA with A25G, G26A, A27G, A28C, G29U
DNA 1: CAATCTGAATTCCGGTCTCCC
DNA 2: TGGTGGCTACGACGGGATT
B17: GCAUGCA (DNA:RNA)
RNA: B4 RNA with A25G, G26C, A28U, U30C
DNA 1: CAATCTGAATTCCGGTCTCCC
DNA 2: TGGTGGCTACGACGGGATT
B18: CCAGUUG (DNA:RNA)
RNA: B4 RNA with A25C, G26C, A28G, G29U, A31G
DNA 1: CAATCTGAATTCCGGTCTCCC
DNA 2: TGGTGGCTACGACGGGATT
B19: AUUCACG (DNA:RNA)
RNA: B1 RNA with G25A, C27U, U28C, U29A, A30C
DNA 1: CAATCTGAATTCCGGTCTCCC
DNA 2: TGGTGGCTACGACGGGATT
B20: GGUCGCC (DNA:RNA)
RNA: B4 RNA with A25G, A27U, A28C, U30C, A31C
DNA 1: CAATCTGAATTCCGGTCTCCC
DNA 2: TGGTGGCTACGACGGGATT
B21: AUCCAGU (DNA:RNA)
RNA: B1 RNA with G25A, U28C, U29A, A30G, G31U
DNA 1: CAATCTGAATTCCGGTCTCCC
DNA 2: TGGTGGCTACGACGGGATT
B22: AGUGGAA (DNA:RNA)
RNA: B4 RNA with A27U, A28G, U30A
DNA 1: CAATCTGAATTCCGGTCTCCC
DNA 2: TGGTGGCTACGACGGGATT
B23: UCAUGCG (DNA:RNA)
RNA: B4 RNA with A25U, G26C, A28U, U30C, A31G
DNA 1: CAATCTGAATTCCGGTCTCCC
DNA 2: TGGTGGCTACGACGGGATT
B24: CAGGGGA (DNA:RNA)
RNA: B4 RNA with A25C, G26A, A27G, A28G, U30G
DNA 1: CAATCTGAATTCCGGTCTCCC
DNA 2: TGGTGGCTACGACGGGATT
B25: GAAUCAG (DNA:RNA)
RNA: B1 RNA with U26A, C27A, U29C
DNA 1: CAATCTGAATTCCGGTCTCCC
DNA 2: TGGTGGCTACGACGGGATT
B26: ACUACGC (DNA:RNA)
RNA: B4 RNA with G26C, A27U, G29C, U30G, A31C
DNA 1: CAATCTGAATTCCGGTCTCCC
DNA 2: TGGTGGCTACGACGGGATT
B27: UGAAACC (DNA:RNA)
RNA: B4 RNA with A25U, G29A, U30C, A31C
DNA 1: CAATCTGAATTCCGGTCTCCC
DNA 2: TGGTGGCTACGACGGGATT
B28: CUAAGAG (DNA:RNA)
RNA: B4 RNA with A25C, G26U, U30A, A31G
DNA 1: CAATCTGAATTCCGGTCTCCC
DNA 2: TGGTGGCTACGACGGGATT
B29: UGACCAA (DNA:RNA)
RNA: B4 RNA with A25U, A28C, G29C, U30A
DNA 1: CAATCTGAATTCCGGTCTCCC
DNA 2: TGGTGGCTACGACGGGATT
B30: UUGAUUG (DNA:RNA)
RNA: B1 RNA with G25U, C27G, U28A, A30U
DNA 1: CAATCTGAATTCCGGTCTCCC
DNA 2: TGGTGGCTACGACGGGATT
B31: CGUUUAA (DNA:RNA)
RNA: B1 RNA with G25C, U26G, C27U, G31A
DNA 1: CAATCTGAATTCCGGTCTCCC
DNA 2: TGGTGGCTACGACGGGATT

This experiment addresses T1, RBFOX1 RRM RbFoxmut (Fox-RRM*). Nature of the experiment: EMSA; HiTS-Eq, 1 nM pool, 10 min; buffer printed only for the single-RNA assays: 10 mM Tris pH 7.5, 150 mM NaCl, 3.4 mM EDTA, 0.001% NP-40, 30 C. To be noted: tags: His6 N-terminal (pET28a); label: 5' 32P. The method, boiled down: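 Purified RbFox RRM, wild type or mutant, was incubated for 10 min in 50 µL with 1 nM of a 5′-radiolabelled RNA pool carrying 7 randomized nucleotides, whose flanks were annealed to DNA oligonucleotides, over a series of increasing protein concentrations. Unbound RNA was resolved on 8% native PAGE, cut out, reverse-transcribed, barcoded by PCR and sequenced on an Illumina HiSeq 2500. Relative association constants were derived from changes in read counts for each RNA species versus the control reaction and normalised to the cognate motif.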
As to B1, the binding signal was 0.149 KA relative to UGCAUGU. For B2 the value was 0.0953 KA relative to UGCAUGU; for B3, 0.068 KA relative to UGCAUGU. As for B4, the binding signal was 0.156 KA relative to UGCAUGU. With B5, the binding signal was 0.119 KA relative to UGCAUGU. The result for B6 reads 0.0679 KA relative to UGCAUGU. As for B7, the binding signal is 0.207 KA relative to UGCAUGU. For B8 the value was 0.0789 KA relative to UGCAUGU; for B9, 0.0811 KA relative to UGCAUGU; for B10, 0.119 KA relative to UGCAUGU. The result for B11 reads 0.0928 KA relative to UGCAUGU. For B12 the value was 0.0698 KA relative to UGCAUGU; for B13, 0.0911 KA relative to UGCAUGU. As to B14, the binding signal was 0.0655 KA relative to UGCAUGU. For the molecule B15, the binding signal is 0.174 KA relative to UGCAUGU. For B16 the value was 0.103 KA relative to UGCAUGU; for B17, 0.828 KA relative to UGCAUGU; for B18, 0.116 KA relative to UGCAUGU. For B19, the binding signal was 0.14 KA relative to UGCAUGU. With B20, the binding signal was 0.0347 KA relative to UGCAUGU. For B21 the value was 0.091 KA relative to UGCAUGU; for B22, 0.115 KA relative to UGCAUGU; for B23, 0.132 KA relative to UGCAUGU. The result for B24 reads 0.0912 KA relative to UGCAUGU. Turning to B25, the binding signal was 0.389 KA relative to UGCAUGU. The result for B26 reads 0.108 KA relative to UGCAUGU. For B27 the value was 0.0546 KA relative to UGCAUGU. The result for B28 reads 0.104 KA relative to UGCAUGU. On to B29, for which the binding signal is 0.0683 KA relative to UGCAUGU. B30: the binding signal is 0.381 KA relative to UGCAUGU.

For the molecule B31, the binding signal is 0.11 KA relative to UGCAUGU.
